{"source": "paper PMC4336329", "about": "(PLoS ONE, 2015)", "note": "Screen size: about 310,000 compounds; about 2,200 (0.71%) showed an effect of 50% or more. The effect is printed as a negative number. The list shows a part of the results."}
{"molecular_target": "human ether-à-go-go-related gene (hERG) potassium channel (human, UniProt Q12809)", "sequence (Q12809 whole entry, looked up)": "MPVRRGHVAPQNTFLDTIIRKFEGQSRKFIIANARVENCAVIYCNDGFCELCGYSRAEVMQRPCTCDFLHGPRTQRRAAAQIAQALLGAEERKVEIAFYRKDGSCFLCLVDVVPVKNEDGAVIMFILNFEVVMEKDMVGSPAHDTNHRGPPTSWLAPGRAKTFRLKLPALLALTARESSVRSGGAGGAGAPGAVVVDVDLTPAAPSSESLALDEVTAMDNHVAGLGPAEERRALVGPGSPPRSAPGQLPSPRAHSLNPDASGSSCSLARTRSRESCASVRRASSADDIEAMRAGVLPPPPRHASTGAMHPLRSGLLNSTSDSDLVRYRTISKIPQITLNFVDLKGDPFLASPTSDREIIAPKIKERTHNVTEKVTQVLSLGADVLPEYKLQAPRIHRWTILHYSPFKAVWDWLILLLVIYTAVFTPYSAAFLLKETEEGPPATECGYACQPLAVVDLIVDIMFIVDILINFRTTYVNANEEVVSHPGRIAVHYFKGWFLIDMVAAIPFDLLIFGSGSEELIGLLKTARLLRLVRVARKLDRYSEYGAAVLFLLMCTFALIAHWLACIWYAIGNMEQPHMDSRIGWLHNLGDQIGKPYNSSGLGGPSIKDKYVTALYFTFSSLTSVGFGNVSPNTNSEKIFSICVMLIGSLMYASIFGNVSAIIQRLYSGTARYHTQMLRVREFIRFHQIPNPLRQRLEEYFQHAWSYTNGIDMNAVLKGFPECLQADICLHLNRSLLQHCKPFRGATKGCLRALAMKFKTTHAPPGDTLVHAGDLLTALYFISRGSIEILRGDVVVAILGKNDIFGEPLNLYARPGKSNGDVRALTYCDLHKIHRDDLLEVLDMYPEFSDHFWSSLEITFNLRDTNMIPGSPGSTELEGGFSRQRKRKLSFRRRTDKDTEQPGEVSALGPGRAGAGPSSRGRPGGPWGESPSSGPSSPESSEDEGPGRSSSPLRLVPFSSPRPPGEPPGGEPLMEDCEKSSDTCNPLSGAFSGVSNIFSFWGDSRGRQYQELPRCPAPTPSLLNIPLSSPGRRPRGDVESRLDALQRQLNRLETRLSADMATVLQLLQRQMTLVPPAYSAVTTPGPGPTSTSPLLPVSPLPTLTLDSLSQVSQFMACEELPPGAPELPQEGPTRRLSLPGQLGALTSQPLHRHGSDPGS", "assay": "primary screen, population patch clamp on CHO cells stably expressing hERG", "units": {"hERG current change (%, negative = inhibition) at 1uM": "%"}}
{"smiles": "Cc1cccc(C(CC(=O)O)n2cccc2)c1", "note": "(stereo not shown)", "hERG current change (%, negative = inhibition) at 1uM": 12.7}
{"smiles": "COC(=O)c1ccc(-c2csc(NC(=O)C3=COCCO3)n2)cc1", "hERG current change (%, negative = inhibition) at 1uM": 9.14}
{"smiles": "O=C(NC(Cc1ccccc1)C(=O)O)/C(=C/c1ccc([N+](=O)[O-])cc1)NC(=O)c1ccccc1", "note": "(stereo not shown)", "hERG current change (%, negative = inhibition) at 1uM": 10.9}
{"smiles": "[N-]=[N+]=NC[C@H](Cc1ccccc1)N1CC[C@@H](OCc2ccccc2)CCC1=O", "hERG current change (%, negative = inhibition) at 1uM": 6.37}
{"smiles": "COc1ccc(C2C3=C(CC(C)(C)CC3=O)N(CC(=O)O)C3=C2C(=O)CC(C)(C)C3)cc1OC", "hERG current change (%, negative = inhibition) at 1uM": 5.99}
{"smiles": "Cc1cccc(N=C2NC(=O)/C(=C/c3cn(C)c4ccccc34)S2)c1", "hERG current change (%, negative = inhibition) at 1uM": 15.8}
{"smiles": "CCc1nn(CC(=O)N2CCN(C)CC2)c(=O)c2cccn12", "hERG current change (%, negative = inhibition) at 1uM": -1.06}
{"smiles": "O=C(NCCc1c[nH]c2ccccc12)C(=O)NCC(c1ccco1)N1CCN(c2ccccc2F)CC1", "note": "(stereo not shown)", "hERG current change (%, negative = inhibition) at 1uM": -2.01}
{"smiles": "CC(=O)NC1=NN(C(C)=O)C2(CCCC2)S1", "hERG current change (%, negative = inhibition) at 1uM": 11.3}
{"smiles": "CCc1cccc(C)c1NS(=O)(=O)c1cc(Br)cnc1N", "hERG current change (%, negative = inhibition) at 1uM": 15.8}
{"smiles": "COc1cc(/C=N/n2nnnc2Nc2ccccc2)cc(OC)c1OC", "hERG current change (%, negative = inhibition) at 1uM": -1.79}
{"smiles": "CCNc1nc(C)cc(COC)c1C#N", "hERG current change (%, negative = inhibition) at 1uM": -1.13}
{"smiles": "COC(=O)c1ccc(CN2CCC(CO)(CCOc3ccccc3)CC2)cc1", "hERG current change (%, negative = inhibition) at 1uM": -81.7}
{"smiles": "CCCn1c(SCCC(=O)O)nc2ccccc21", "hERG current change (%, negative = inhibition) at 1uM": 8.31}
{"smiles": "CCOc1ccc2oc(C(=O)OCC(=O)NC(=O)NC3CCCC3)c(C)c2c1", "hERG current change (%, negative = inhibition) at 1uM": 4.93}
{"smiles": "COc1ccc(NC(=O)CN2CCN(S(=O)(=O)c3ccc(Cl)cc3)CC2)cc1", "hERG current change (%, negative = inhibition) at 1uM": -64.1}
{"smiles": "COc1ccc(CNC(=O)CCCn2nc([N+](=O)[O-])cc2C)cc1", "hERG current change (%, negative = inhibition) at 1uM": 6.61}
{"smiles": "Cc1ccc(S(=O)(=O)N2CCCCC2C(=O)N2CCN(Cc3ccccc3)CC2)cc1.Cl", "note": "(stereo not shown)", "hERG current change (%, negative = inhibition) at 1uM": 7.97}
{"smiles": "Cc1ccc(NC(=O)Cn2nnc(C(=O)Nc3ccc(F)c(Cl)c3)c2N)cc1", "hERG current change (%, negative = inhibition) at 1uM": 10.2}
{"smiles": "CC(=O)Oc1ccccc1C(=O)O", "hERG current change (%, negative = inhibition) at 1uM": 7.19}
{"smiles": "Cc1ncc(C[n+]2csc(CCO)c2C)c(N)n1.[Cl-]", "hERG current change (%, negative = inhibition) at 1uM": 11.4}
{"smiles": "Clc1ccc(-c2nc3ccccn3c2CN2CCCCC2)cc1", "hERG current change (%, negative = inhibition) at 1uM": 3.44}
{"smiles": "O=C(O)/C(=C/c1ccco1)NC(=O)c1ccc(Br)o1", "hERG current change (%, negative = inhibition) at 1uM": 14.9}
{"smiles": "O=C(c1ccco1)N1CCN(Cc2nnc(-c3cccc(Br)c3)o2)CC1", "hERG current change (%, negative = inhibition) at 1uM": -51.6}
{"smiles": "CCN(CC(=O)Nc1ccccc1OC)C(=O)C1CCCC1", "hERG current change (%, negative = inhibition) at 1uM": 7.53}
{"smiles": "CN(C)C(Cc1ccc(C#N)cc1)C(=O)c1ccccc1", "note": "(stereo not shown)", "hERG current change (%, negative = inhibition) at 1uM": 6.46}
{"smiles": "CC1CC(C)(C)NC(=S)N1CCCC(=O)N1CCN(c2ccccc2F)CC1", "note": "(stereo not shown)", "hERG current change (%, negative = inhibition) at 1uM": -8.48}
{"smiles": "O=C(CSc1nnnn1C1CC2C=CC1C2)Nc1ccc(C(=O)O)cc1", "note": "(stereo not shown)", "hERG current change (%, negative = inhibition) at 1uM": -4.89}
{"smiles": "O=C(/C=C/c1ccccc1Cl)Nc1ccc2c(c1)C(=O)NC2=O", "hERG current change (%, negative = inhibition) at 1uM": 13.2}
{"smiles": "COc1cccc(Nc2ncccc2C(=O)Nc2ccccc2)c1", "hERG current change (%, negative = inhibition) at 1uM": 11.5}
{"smiles": "Cc1cc(=O)[nH]c(SCC(=O)Nc2nnc(CC(C)C)s2)n1", "hERG current change (%, negative = inhibition) at 1uM": 7.6}
{"smiles": "Cc1ccnc(NC(=O)/C=C/c2cccs2)c1", "hERG current change (%, negative = inhibition) at 1uM": 15.7}
{"smiles": "Cc1ccc(NC(=O)C2CCN(C(=O)NC3CCCCC3)CC2)cc1Cl", "hERG current change (%, negative = inhibition) at 1uM": 14.8}
{"smiles": "COc1ccc(CNC(=O)CN(c2cccc(OC)c2)S(C)(=O)=O)cc1", "hERG current change (%, negative = inhibition) at 1uM": 12.2}
{"smiles": "COc1ccc(NC(=O)c2c[nH]c(=O)n(-c3ccc(C)c(C)c3)c2=O)cc1OC", "hERG current change (%, negative = inhibition) at 1uM": 11.2}
{"smiles": "CC1=Nn2c(nc3sc4c(c3c2=O)CCCC4)SC1", "hERG current change (%, negative = inhibition) at 1uM": -5.24}
{"smiles": "CCCNC(C)C(=O)Nc1c(C)csc1C(=O)OC.Cl", "note": "(stereo not shown)", "hERG current change (%, negative = inhibition) at 1uM": 2.53}
{"smiles": "CCC(C)(C)NC(=O)C(c1cccc(OC)c1OC)N(CCC(C)C)C(=O)CCC(=O)Nc1cc(C)on1", "note": "(stereo not shown)", "hERG current change (%, negative = inhibition) at 1uM": 13.8}
{"smiles": "Cc1onc(-c2ccccc2Cl)c1C(=O)OCC(=O)N1CCCc2ccccc21", "hERG current change (%, negative = inhibition) at 1uM": 5.67}
{"smiles": "CCn1cc(C(C)NC(=O)Nc2ccc3c(c2)OCO3)c(C)n1", "note": "(stereo not shown)", "hERG current change (%, negative = inhibition) at 1uM": 37.7}
{"smiles": "CCCCN(C(=O)COC(=O)CSc1cc(C)c2ccccc2n1)c1c(N)n(CCC)c(=O)[nH]c1=O", "hERG current change (%, negative = inhibition) at 1uM": 8.32}
{"smiles": "CCn1c(CNc2ccccc2Cl)nnc1SCC(=O)OC1CCCCC1", "hERG current change (%, negative = inhibition) at 1uM": 14.1}
{"smiles": "CCN(CC)S(=O)(=O)c1ccc(Nc2cc(C)nc3ncnn23)cc1", "hERG current change (%, negative = inhibition) at 1uM": -12.7}
{"smiles": "CC(=O)N1CCc2cc(NC(=O)c3ccc(C)cc3)ccc21", "hERG current change (%, negative = inhibition) at 1uM": 14.2}
{"smiles": "CC1(C)Cc2nc(-c3ccccc3)nc(NNC(=O)c3ccco3)c2CO1", "hERG current change (%, negative = inhibition) at 1uM": 16.1}
{"smiles": "Cc1ccc(N2C(=O)CC(Cc3cc(C)cc(C)c3)C2=O)cc1", "note": "(stereo not shown)", "hERG current change (%, negative = inhibition) at 1uM": 10.7}
{"smiles": "CCN(CC)S(=O)(=O)C1CCS(=O)(=O)C1", "note": "(stereo not shown)", "hERG current change (%, negative = inhibition) at 1uM": 19.4}
{"smiles": "O=C(c1ccc(CSc2ccccc2)cc1)N1CCCCCC1", "hERG current change (%, negative = inhibition) at 1uM": 14.3}
{"smiles": "O=C(O)CSc1nnc(-c2cccs2)n1-c1ccc(Cl)cc1", "hERG current change (%, negative = inhibition) at 1uM": 6.42}
{"smiles": "O=c1c2ccccc2c(-c2ccccc2)nn1Cc1c(Cl)cccc1Cl", "hERG current change (%, negative = inhibition) at 1uM": -3.75}
{"smiles": "CC(=O)Nc1ccc(-n2cnnn2)cc1", "hERG current change (%, negative = inhibition) at 1uM": 11.2}
{"smiles": "CN(C)CCN(Cc1ccccc1)c1ccccn1.Cl", "hERG current change (%, negative = inhibition) at 1uM": -19.1}
{"smiles": "CC(OC(=O)c1ccc(CN2CCCC2=O)cc1)C(=O)Nc1ccc(Cl)cc1", "note": "(stereo not shown)", "hERG current change (%, negative = inhibition) at 1uM": 19.5}
{"smiles": "CCCCc1nc2cc(Cl)ccc2o1", "hERG current change (%, negative = inhibition) at 1uM": 13.8}
{"smiles": "C=C[C@]1(C)C[C@H]1[C@H](NP(=O)(c1ccccc1)c1ccccc1)c1ccccc1", "hERG current change (%, negative = inhibition) at 1uM": 16.6}
{"smiles": "CC(=O)Nc1ccc(S(=O)(=O)NCCC(=O)N2CCCCC2)cc1", "hERG current change (%, negative = inhibition) at 1uM": 12.4}
{"smiles": "O=C(COc1ccccc1)Nc1nc2cc3c(cc2s1)OCO3", "hERG current change (%, negative = inhibition) at 1uM": 17.4}
{"smiles": "Cc1ccc(N(Cc2cc3ccccc3[nH]c2=O)S(C)(=O)=O)cc1", "hERG current change (%, negative = inhibition) at 1uM": 10.2}
